Assay results reported in the supplement of paper PMC12217912.
The other results are listed elsewhere or left out. Sequences were assembled here from the parent chain. Inactive controls read about 0.05.

B1: TEV protease; numbered along this chain (parent)
chain: MGESLFKGPRDYNPISSSICHLTNESDGHTTSLYGIGFGPFIITNKHLFRRNNGTLVVQSLHGVFKVKDTTTLQQHLVDGRDMIIIRMPKDFPPFPQKLKFREPQREERICLVTTNFQTKSMSSMVSDTSCTFPSGDGIFWKHWIQTKDGQCGSPLVSTRDGFIVGIHSASNFTNTNNYFTSVPKNFMELLTNQEAQQWVSGWRLNADSVLWGGHKVFMVKPEEPFQPVKEATQL

Variants of: B1
Assay: raw area under fraction-flipped curve 0-4 h after induction (AUC4h, not background-subtracted), DNA-recorder readout of cleavage of the substrate (dimensionless); higher = more cleavage of the substrate by the protease variant
Settings: temperature: 34 °C; time window: 0-4 h after rhamnose induction
Description: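 In vivo DNA recorder in E. coli TOP10(DE3) ΔrhaA at 34 °C. Each TEVp single-site mutant (parent TEVp 0) is paired with a single-site variant of the 7-mer TEVs (canonical ENLYFQ|S). The substrate sits between flexible linkers in a Bxb1-sfGFP-TEVs-SsrA fusion, so cleavage stabilises Bxb1 and speeds flipping of a recombination array, read by NGS. The value is the raw area under the fraction-flipped curve over 0-4 h after rhamnose induction (AUC4h), with ≥20 reads per time point. It is not background-subtracted; inactive controls average about 0.047.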
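Also: Bxb1 expression induced with 0.2% (w/v) L-rhamnose at OD600 near 0.5, cultures sampled hourly, flipped fraction per protease–substrate barcode pair counted by paired-end Illumina sequencing.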

Variant | area with substrate ENLYFAS | area with substrate ENLYFCS | area with substrate ENLYFES | area with substrate ENLYFFS | area with substrate ENLYFGS | area with substrate ENLYFHS | area with substrate ENLYFIS | area with substrate ENLYFKS | area with substrate ENLYFMS | area with substrate ENLYFNS | area with substrate ENLYFPS | area with substrate ENLYFTS | area with substrate ENLYFVS | area with substrate ENLYFWS | area with substrate ENLYFYS | area with substrate ENLYFDS | area with substrate ENLYFLS | area with substrate ENLYFRS | area with substrate ENLYFSS
F38M | 0.058 | 0.0581 | 0.0526 | 0.0659 | 0.0655 | 0.068 | 0.0522 | 0.0551 | 0.0553 | 0.0579 | 0.0614 | 0.0579 | 0.0568 | 0.0507 | 0.057 | – | – | – | –
P40E | 0.0558 | – | 0.0714 | 0.0613 | – | – | 0.0566 | 0.0441 | 0.0323 | 0.0861 | 0.0816 | 0.07 | 0.0533 | – | 0.0527 | 0.0646 | 0.051 | 0.0485 | –
F41L | 0.0448 | 0.066 | 0.0658 | 0.0716 | 0.0623 | 0.0436 | 0.0593 | 0.0613 | 0.0675 | 0.0547 | 0.0554 | 0.061 | – | 0.0602 | 0.0589 | 0.0521 | – | 0.0802 | 0.06
F41V | 0.0577 | – | 0.0639 | 0.0486 | – | 0.059 | 0.0496 | – | 0.084 | 0.0529 | 0.0252 | 0.0523 | 0.0558 | 0.0762 | 0.0966 | – | – | 0.0542 | 0.0254
I42N | 0.019 | – | – | 0.0573 | 0.0427 | 0.0551 | 0.0364 | – | 0.0504 | – | – | – | 0.0258 | – | 0.0564 | 0.0446 | 0.0573 | 0.0423 | 0.0444
I43C | 0.0588 | – | 0.0579 | 0.0685 | 0.0317 | 0.0568 | 0.0501 | 0.0574 | 0.0641 | 0.0559 | 0.0564 | 0.0629 | 0.0427 | 0.0682 | – | 0.0574 | – | 0.0548 | 0.0521
I43P | 0.032 | 0.0418 | 0.0495 | 0.0494 | 0.0423 | 0.054 | 0.0439 | 0.0458 | 0.0394 | – | 0.0456 | 0.0377 | 0.0452 | – | 0.0492 | 0.0518 | 0.0412 | 0.0292 | 0.03
I43T | 0.0539 | 0.0626 | 0.0552 | 0.0561 | 0.0697 | 0.0393 | 0.0503 | 0.0565 | 0.0571 | 0.0551 | 0.0601 | 0.0513 | – | 0.0558 | 0.0534 | 0.0429 | – | 0.0525 | 0.0585
N45A | 0.0557 | – | 0.058 | 0.0747 | – | 0.0702 | 0.0428 | 0.0643 | 0.0599 | – | 0.0595 | 0.0873 | 0.0635 | 0.0543 | 0.0574 | – | 0.0586 | 0.0827 | 0.0594
N45K | 0.0546 | 0.0546 | 0.0539 | 0.0693 | – | 0.0446 | 0.0257 | – | 0.0525 | – | 0.0676 | 0.0512 | 0.0523 | – | 0.0525 | – | – | – | 0.0507
K46H | 0.0583 | 0.0594 | – | 0.0683 | – | – | 0.0576 | 0.0544 | 0.0599 | 0.0654 | 0.0559 | 0.0595 | – | – | 0.0502 | 0.047 | 0.0576 | 0.0626 | 0.0579
K46L | 0.057 | 0.037 | 0.0682 | 0.0635 | – | 0.0621 | 0.0513 | 0.0573 | 0.058 | – | 0.063 | 0.0626 | 0.0495 | 0.055 | – | 0.0558 | 0.0555 | 0.0502 | 0.0694
K46Y | 0.0496 | 0.0594 | 0.054 | 0.0574 | 0.0574 | – | – | 0.0578 | 0.0568 | 0.0554 | 0.0522 | 0.0567 | 0.0668 | 0.0511 | 0.0416 | 0.0462 | – | 0.0744 | –
H47I | 0.0648 | 0.056 | 0.052 | 0.067 | 0.0443 | 0.0519 | 0.0559 | 0.0696 | 0.0541 | 0.0618 | 0.0594 | – | 0.0637 | 0.0458 | 0.0648 | – | – | 0.0558 | 0.0574
H47V | 0.063 | 0.0657 | 0.0628 | 0.0703 | – | 0.0406 | – | 0.0586 | 0.0652 | – | 0.0609 | 0.0714 | 0.0572 | 0.0551 | 0.0565 | 0.0565 | 0.0507 | 0.06 | 0.0603
F49C | 0.0524 | 0.0483 | 0.0626 | 0.0602 | 0.0662 | 0.0656 | 0.0546 | 0.0628 | 0.0636 | 0.0513 | 0.0639 | 0.0587 | – | 0.075 | 0.0627 | 0.0526 | 0.0522 | 0.0654 | 0.0507
R51L | 0.0584 | 0.0604 | 0.067 | – | 0.0664 | 0.0519 | 0.0596 | 0.0593 | 0.0635 | 0.0692 | 0.0696 | 0.0637 | – | 0.0406 | 0.0637 | 0.0601 | – | – | 0.0674
N53I | 0.0547 | 0.0575 | 0.056 | 0.0657 | – | 0.0418 | 0.0652 | 0.0604 | 0.0579 | – | 0.123 | 0.0657 | 0.0504 | 0.0612 | – | 0.0591 | 0.0584 | 0.09 | –
N53R | 0.0583 | – | 0.0725 | 0.0649 | – | 0.0478 | 0.0561 | 0.0829 | 0.0768 | – | 0.0877 | 0.0666 | 0.0608 | 0.0528 | 0.0473 | – | – | 0.0642 | 0.0538
N53T | 0.0763 | 0.0748 | 0.0656 | – | 0.0554 | – | 0.0575 | 0.0428 | 0.0615 | 0.0636 | 0.0217 | – | 0.0617 | 0.047 | 0.0402 | 0.0518 | – | 0.0578 | 0.0415
G54N | 0.0553 | 0.0495 | 0.0602 | 0.0682 | 0.0597 | – | 0.062 | 0.0605 | 0.0652 | 0.061 | 0.0625 | 0.0618 | 0.0643 | – | 0.0468 | – | 0.0608 | 0.0493 | 0.0632
G54T | 0.0521 | 0.0606 | 0.0617 | 0.0574 | 0.0613 | 0.0644 | 0.0515 | 0.059 | 0.0591 | 0.0616 | 0.0555 | 0.0585 | 0.051 | 0.0546 | 0.0542 | 0.0504 | – | 0.0644 | –
G54Y | 0.0308 | 0.0514 | 0.0415 | 0.0672 | – | 0.0779 | 0.0732 | 0.0634 | – | 0.06 | – | – | – | 0.0299 | 0.0562 | 0.104 | – | – | –
